The chains are these.
B1: tRNA (parent)
chain: CUCUCGGUAGCCAAGUUGGUUUAAGGCGCAAGACUUUAAUUUAUCACUACGAAAUCUUGAGAUCGGGCGUUCGACUCGCCCCCGGGAGAUUUUUUCCUCGAGCAA

Variants at the background level are over-represented here. Bounds are passed on as bounds.

The data set covers variants of B1. Put plainly: nonsense suppression (GFP-seq) (ratio to wild type); higher = more function; SUP4oc tRNA, yeast GFP reporter sort-seq. Summed up:
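Sorted GFP/RFP bins of yeast were each Illumina-sequenced with a phred ≥30 cutoff; the cells held a genome-integrated ochre-suppressor tRNA variant from a library with ~3% random mutations, a galactose-driven GFP ochre reporter, and RFP. Culture was in raffinose/galactose medium containing 80 mg/L adenine. Nonsense suppression, termed GFPSEQ, is the median GFP/RFP of the bins weighted by each variant's estimated cell share per bin, relative to the unmutated parent tRNA, for variants reaching ≥100 reads and ≥30 cells.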
Take CUCUCGGUAGCCAAGUUGGAUUAAGGCGGAAGACUUUAAUUUAUCACUACGAAAUCUUGAGAUCGGGCGUUCGACUCGCCCCCGGGAGAUUUUUUCCUCGAGCAA [U20A C29G]: the nonsense suppression was not above 0.026. Regarding CUCUCGGUAGGCAAGUUGGUUUAAGGCGUAAGACUUUAAUUUAUCACUACGAAAUCUUGCGAUCGGGCGUUCGACUCGCCCCCGGGAUAUUUUUUCCUCGAGCAA [C11G C29U A60C G88U], the nonsense suppression is not above 0.026. For CUCUGGGGAGCCAAGUUGGUUUAAGGGGCAAGACUUUAAUUUAUCACUACGAAAUCUUGAGAUCGGGCGUUCGACCCGCCCCCGGGAGAUUUUUUCCUCGAGCAA [C5G U8G C27G U76C] the value was not above 0.026. Turning to CUCUCGGUAGCCAAGUUGGUUUAAGGCGCAAGACUUUAAUUUAUCACUACGAAAUCUUGAGAUCGGGCGUGCGACUCUCCCCCGGGAGAUUUUUUCCUCGAGCAA [U71G G78U], the nonsense suppression is not above 0.026. The figure for CUCUCGGUAGCCAAGUUGGUUUAAGGCGCCAGACUUUAAUUUAUCACUACGAAAUCUAGAGAUCGGACGUUCGACUCGCCCCCGGGAGAUUUUUUCCUCGAGCAA [A30C U58A G67A] is not above 0.026; for CUCUCGGUAGCCAAGUUGGUUUAAGGCGCGAGACUUUAAUUUAUCACUACGAAAUCUUGAGAUCGGGCGUUCGACUCGUCCCCGGGAGAUUUUUUCCUCGAGCAA [A30G C79U] it is 0.207; for CUGUCGGUAGCCAAGUUGGUUUAAAGCGCAAGACUUUAAUUUAUCACUACGAAAUCUUGAGAUCGGGCGUUCGACUCGCCCCCUGGAGAUUUUUUCCUCGAGCAA [C3G G25A G84U] it is not above 0.026. The figure for CUCUCGGUAGCCAAGUUGGUUUACGGCGCAAGACUUUAAUUUAUCACUACGAACUCUUGAAAUCGGGCGUUCGACUCGCCCCCGGGAGAUUUUUUCCUCGAGCAA [A24C A54C G61A] is not above 0.026; for CUCUCGGUAGCCAAGUUGGUUUAAGGCGUAAGACUUUAAUUUAUCACUACGAAAGCUUGAGAUCGGGCGUUCGACUCGCCCCCGGGAGAUUUUUUCCUCGAGCAA [C29U U55G] it is not above 0.026. The figure for CUCUCGGUAGCCAAAUUGGCUUAAGGGGCAAGACUUUAAUUUAUCACUACGAAUUCAUGAGAUCGGGCGAUCGACUCGCCCCCGGGAGAUUUUUUCCUCGAGCAA [G15A U20C C27G A54U U57A U70A] is not above 0.026.

Take CUCUCGGUAGCCAUGUUCGUUUAAGGCGCAAGACUUUAAUUUAUCACUACGAAAUCUUGAGAUCGGGCGUUCGACUCGCUCCCGGGAGAUUUUUUCCUCGAGCAA [A14U G18C C80U]: the nonsense suppression was not above 0.026.

Take CCCUCCGUAGUCAAGUUGGUUUAAGGAGCAAGUCUUUAAUUUAUCACUACGAAAUCUUGAGAUCGGGCGUUCGACUCGCCCCCGGGAGAUUUUUUCCUCGAGCAA [U2C G6C C11U C27A A33U]: the nonsense suppression was not above 0.026. Take CUCUCGGUAGCCAAGUUUGUUUAAGGCGCAAGACUUUAAUUUAUCACUACGAAAACUUGAGAUCGUGCAUUCGACUCGCCCCCGGGACAUUUUUUCCUCGAGCAA [G18U U55A G66U G69A G88C]: the nonsense suppression is not above 0.026.

For CUCUCGGUAGCCAAGUUGGUUUAAGGCGCAAGUCUUUAAUUUAUCACUACGAAAUCUUGUGAUCGCGCGUUCGACUCGCCCCCGGGAGAUUUUUUCCUCGAGCAA [A33U A60U G66C], the nonsense suppression is not above 0.026.

Turning to CUCUUGGUAGCCACGUUGGUUUAAGGCGCAAGACUUUAAUUUAUCACUACGAAAUCUUGAGAUCGGGCGUUCGACUCGCCCCGGGGCGAUUUUUUCCUCGAGCAA [C5U A14C C83G A87C], the nonsense suppression is not above 0.026. The figure for CUCUCGGUGGCCAAGUUGGUUUAAGGCGCAAGACUUUAAUUUAUCACUACGAAAUCUUGAGAUCCGGCGUUCGACUCGCCCCCGGGAGGUUUUUUCCUCGAGCAA [A9G G65C A89G] is not above 0.026; for CUCUCGGUAGCCAAGUUGAUUUAAGGCGCAAGACUUUAAUUUAUCACUACGAAAUCUUGAGAUGGGGUGUUCGACUCGCCCACGGGAGAUUUUUUCCUCGAGCAA [G19A C64G C68U C82A] it is not above 0.026; for CUCUCGGUGGCCAAGUUGGUUUAAGGCGCAAGACUUUAAUUUAUCACUACGAAAUCUUGAGAUCGCGCGUUCGACACGCCCCCUGGAGAUUUUUUCCUCGAGCAA [A9G G66C U76A G84U] it is not above 0.026. For CUCUCGGUAUCCAAGUUGGUUUAAGGCGCAAGACUUUAAUUUAUCACUACGAAAUCUGGAGAUCGGGCGUUCGACUCGCCCCCGGCAGAUUUUUUCCUCGAGCAA [G10U U58G G86C] the value was not above 0.026; for CUCUCGGUAGCCAAGUUAGUUUAAGGCGCAAGACUUUAAUUUAUCACUACGAAAUGUGGAGAUCGGGCGUGCGACUUGCCCCCGGGAGAUUUUUUCCUCGAGCAA [G18A C56G U58G U71G C77U], not above 0.026. As for CUCUCGGUAGCCAAGUUGGUUUAACGCGCAAGACUUUAAUUUAUCACUACGAAAUCUUGAGACCGGGUGUUCGACUCGCUCGCGGGAGGUUUUUUCCUCGAGCAA [G25C U63C C68U C80U C82G A89G], the nonsense suppression was not above 0.026. For the variant CUCUCGGUAGCCAAUUUGGUUUAAGGCGCAAGACUUUAAUUUAUCACUACGAAAUCUUGCGAUCGGGCGUUCGACUCGCCCCCGGGAGAUUUUUUCCUCGAGCAA [G15U A60C], the nonsense suppression was not above 0.026.

Take CUCUCGGUAGACACGUUGGUUGAAGGCGCAAGACUUUAAUUUAUCACUACGAAAUCUUGAGAUCGCGCGUUCGACUCGCCCCCGGGAGAUUUUUUCCUCGAGCAA [C11A A14C U22G G66C]: the nonsense suppression is not above 0.026. For CUCUCGGUAGACAAGUUGGUUUAAGGCGCAAGACUUUAAUUUAUCACUACGAAAUCUUGAGAUCGGGCGUUCGACUCGACCCCGGGAGAUUUUUUCCUCGAGCAA [C11A C79A] the value was not above 0.026; for CUCUCGGUAGCCAAGUUGGUUUAAGUCGCAAGACUUUAAUUUAUCACUACGAAAUCUAGAGAUCGGGCGUUCGACUCGCCCCCCGGAGAUUUUUUCCUCGAGCAA [G26U U58A G84C], not above 0.026.

As to CUCUCGGUAGCCAAUUUGGUUUAAGGCGCUAAACUUUAAUUUAUCACUACGAAAUGUUGAGACCGAGCGUUCGACUCGCCCCCGGGAGAUUUUUUCCUCGAGCAA [G15U A30U G32A C56G U63C G66A], the nonsense suppression was not above 0.026. Turning to GUCUCGGUAGCCAAGUUGGCUUAAGGCGCAUGACUUUAAUUUAUCACUACGAAAUCUUGAGAUCGGGCGUUCGACUCGCCCCCGGGAGAUUUUUUCCUCGAGCAA [C1G U20C A31U], the nonsense suppression was not above 0.026.

These data come from the RNAGym collection of RNA variant scans (doi:10.1101/gad.245936.114).
